Reference: PubChem BioAssay AID504332 (National Center for Advancing Translational Sciences (NCATS), 2011)
“And” between values parts separate entries of the source, which are not always exact repeats. Identical values can stand only once. Out of some 350,000 compounds screened, about 31,000 (8.9%) were called active. The inconclusive results got no clear call from the source; some entries with a clear call stand among them for comparison. Calls come from the whole dose curve; as a rule, active = well fitted inhibition curve with a large enough effect; inconclusive = small, poorly fitted or top-dose-only effect; inactive = no such curve, though single readings can be large or run the other way. A potency beside an inconclusive call is a rough fit, not a confirmed value.

biological target: Histone-lysine N-methyltransferase EHMT2 (Homo sapiens) (UniProt Q96KQ7); test: qHTS Assay for Inhibitors of Histone Lysine Methyltransferase G9a; conditions: G9a H3K9 monomethylation, AlphaScreen, 2 h; activity, negative = inhibition: at 59 µM (top of the series) unless noted; note: nearly all actives have a fitted effect of over 75% in size
In short: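 Enzyme 20 nM + cpd, 15 min RT; add b-H3K9 pep 500 nM / SAM 20 uM; 2 h RT; anti-H3K9me1 Ab 0.5 ug/mL + SA donor / anti-rabbit acceptor beads 20 ug/mL each, 10 min; AlphaScreen read.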
% is set by controls: 0 for no effect and ±100 for the full control effect; potency is the fitted concentration of half-maximal effect; tags give direction and shape of the fitted curve.

Chain of UniProt Q96KQ7 (Q96KQ7 whole entry, looked up): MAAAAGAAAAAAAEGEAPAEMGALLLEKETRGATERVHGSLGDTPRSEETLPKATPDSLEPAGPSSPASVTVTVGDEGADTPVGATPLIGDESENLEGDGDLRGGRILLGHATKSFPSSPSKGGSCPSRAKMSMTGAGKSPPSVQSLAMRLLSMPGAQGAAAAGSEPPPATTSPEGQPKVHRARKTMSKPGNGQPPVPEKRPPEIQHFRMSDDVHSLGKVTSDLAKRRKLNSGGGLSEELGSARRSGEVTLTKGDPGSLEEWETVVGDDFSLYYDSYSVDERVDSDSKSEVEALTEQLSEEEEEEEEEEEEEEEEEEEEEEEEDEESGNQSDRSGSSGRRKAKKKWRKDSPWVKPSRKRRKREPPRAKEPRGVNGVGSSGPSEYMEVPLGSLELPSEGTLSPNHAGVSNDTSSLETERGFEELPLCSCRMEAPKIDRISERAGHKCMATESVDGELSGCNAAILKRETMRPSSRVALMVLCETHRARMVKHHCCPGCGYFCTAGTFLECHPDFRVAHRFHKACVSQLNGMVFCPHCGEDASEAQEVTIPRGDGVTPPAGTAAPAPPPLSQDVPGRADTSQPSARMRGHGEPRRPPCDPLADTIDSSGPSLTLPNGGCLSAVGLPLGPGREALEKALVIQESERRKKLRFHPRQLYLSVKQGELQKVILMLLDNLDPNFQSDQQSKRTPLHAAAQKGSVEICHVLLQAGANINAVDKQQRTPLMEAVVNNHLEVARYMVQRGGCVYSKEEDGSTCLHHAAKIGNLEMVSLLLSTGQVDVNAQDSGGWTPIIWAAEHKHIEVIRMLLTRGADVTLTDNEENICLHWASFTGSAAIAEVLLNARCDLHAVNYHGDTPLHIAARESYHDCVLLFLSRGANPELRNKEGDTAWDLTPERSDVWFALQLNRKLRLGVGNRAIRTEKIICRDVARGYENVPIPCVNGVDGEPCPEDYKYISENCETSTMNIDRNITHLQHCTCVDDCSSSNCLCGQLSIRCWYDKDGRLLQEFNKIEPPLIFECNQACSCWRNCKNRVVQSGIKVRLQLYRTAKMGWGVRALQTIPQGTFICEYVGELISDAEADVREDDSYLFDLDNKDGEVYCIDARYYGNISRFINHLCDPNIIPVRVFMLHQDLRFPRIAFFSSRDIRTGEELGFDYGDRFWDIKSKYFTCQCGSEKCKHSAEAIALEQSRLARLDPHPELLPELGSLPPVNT

Compound | Potency | activity, negative = inhibition
O=C(COC(=O)c1ccccc1NC(=O)c1ccccc1)c1ccc([N+](=O)[O-])cc1 | inconclusive: 10 µM [inhibitor, partial curve, poor fit] | –
COc1cc(C=C2C(=O)c3ccccc3C2=O)cc(OC)c1OC | inconclusive: 39.8 µM [inhibitor, single point] | –
COc1cccc(C(=O)Nc2cccc3c2ccc2cccn23)c1 | inconclusive: 89.1 µM [inhibitor, partial curve, poor fit] | –
Cc1cc(-n2cnc3c(=O)[nH]cnc32)ccc1N | – | inactive: 26% [at 0.501 µM]
COc1ccc(N2CCN(C(=O)C3CC(O)CN3S(=O)(=O)c3ccc([N+](=O)[O-])cc3)CC2)cc1 (centres undefined) | active: 44.7 µM | –
C/C=C/c1ccc(OCCCCn2cncn2)c(OC)c1 | inconclusive: 2 µM [inhibitor, partial curve, poor fit] | –
CN(C)c1ccc(NC(=O)CN2C(=O)c3ccccc3C2=O)cc1 | inconclusive: 89.1 µM [inhibitor, single point] | –
Cc1ccc(Nc2nc(N)c([N+](=O)[O-])c(N3CCOCC3)n2)cc1C | inconclusive: 31.6 µM [inhibitor, single point] | –
[O][C@H]1[C@@H](O)[C@@H](CO)O[C@@H](O[C@@H]2[C@@H]3OC[C@H]2O[C@H](O[C@@H]2[C@@H](O)[C@H](C[C@@H]4[C@@H]5OC[C@H]4O[CH][C@@H]5O)O[C@H](CO)[C@@H]2OS(=O)(=O)O)[C@@H]3OS(=O)(=O)O)[C@@H]1O | active: 15.8 µM | –
CCCCn1nc(C(=O)NCC2COc3ccccc3O2)c2ccccc2c1=O (centres undefined) | inconclusive: 3.16 µM [inhibitor, single point] | –
CCn1c2ccccc2c2cc(CN3CCN(S(=O)(=O)Cc4ccccc4)CC3)ccc21 | active: 7.08 µM | –
CC(C)(C)C(=O)NC(NC(=S)Nc1sc2c(c1C#N)CCCC2)C(Cl)(Cl)Cl (centres undefined) | inconclusive: 31.6 µM [inhibitor, full curve, poor fit] | –
CCC(=O)Nc1ccc(C)cc1-c1nc2ccccc2n(C(C)C(=O)Nc2ccccc2CC)c1=O (centres undefined) | inconclusive: 39.8 µM [inhibitor, partial curve, poor fit] | –
Cc1occc1C(=O)Nc1c(Cl)cccc1Cl | inconclusive: 79.4 µM [inhibitor, single point] | –
CCC(=O)N/N=C(\C)CC(=O)Nc1ccc2c(c1)OCCO2 | inconclusive: 39.8 µM [inhibitor, partial curve] | –
CC1CCN(S(=O)(=O)CCNC(=O)c2ccccc2)CC1 | inactive | –
Cc1ccc(S(=O)(=O)N2CCN(C(=O)CN3CCOCC3)C2c2ccccc2)cc1 (centres undefined) | inconclusive: 89.1 µM [inhibitor, single point] | –
N#Cc1nc(COc2ccccc2)oc1N1CCCC1 | inconclusive: 50.1 µM [inhibitor, partial curve, poor fit] | –
COc1ccc(NC(=O)CCNC(=O)C2CCN(S(=O)(=O)c3ccc(OC)cc3)CC2)cc1 | inactive | –
COc1ccc(NC(=O)Nc2ccc(C(=O)N3CCOCC3)cc2)c(OC)c1 | inconclusive: 56.2 µM [inhibitor, partial curve, poor fit] | –
Cc1ccc(C(=O)/C=C/Nc2ccc(S(=O)(=O)Nc3cc(C)nc(C)n3)cc2)cc1 | inconclusive: 89.1 µM [inhibitor, single point] | –
O=C(Nc1cccc(S(=O)(=O)N2CCCCC2)c1)C1CCN(C(=O)c2ccc(Cl)cc2)CC1 | inconclusive: 1.12 µM [inhibitor, single point] | –
O=c1cc(-c2ccc(O)cc2)oc2c(C3OCC(O)C(O)C3O)c(O)c(C3OC(CO)C(O)C(O)C3O)c(O)c12 (centres undefined) | – | inconclusive: -86.3% [inhibitor]

Compound | Potency | activity, negative = inhibition
O=C1c2ccc(Oc3cccc([N+](=O)[O-])c3)cc2C(=O)N1c1ccccn1 | inconclusive: 79.4 µM [inhibitor, single point] | –
CCOC(=O)c1cccc(NC(=O)C2CCCN(c3nnc(N4CCCC4=O)s3)C2)c1 (centres undefined) | inactive | –
COc1ccc(NC(=O)CSc2nnc(-c3ccccn3)n2N)cc1 | inconclusive: 89.1 µM [inhibitor, partial curve, poor fit] | –
COc1ccc2[nH]c(C(=O)N/N=C/c3cc(OC)c(OC)c(OC)c3)cc2c1 | inactive | –
CCc1ccc(C(=O)/C=C/Nc2ccc(S(=O)(=O)Nc3onc(C)c3C)cc2)cc1 | inconclusive: 7.94 µM [inhibitor, partial curve, poor fit] | –
CC(/C=N/n1c(-c2ccccc2)n[nH]c1=S)=C\c1ccco1 | active: 2.24 µM | –
CC1CCN(CCOc2ccc(Cl)c(Cl)c2)CC1 | inconclusive: 25.1 µM [inhibitor, single point] | –
O=C(NCCc1ccccc1)C1CCN(S(=O)(=O)c2cccs2)CC1 | inactive | –
N/C(=N\NC(=O)Nc1ccc(Cl)cc1)c1ccccn1 | inactive | –
COC(=O)C1=C(C)N(c2ccc(C)c(C)c2)/C(=C/c2ccc(O)cc2)C1=O | inconclusive: 44.7 µM [inhibitor, partial curve] | –
O=C(O)c1cc(-c2ccc(/C=N/N3C(=O)C4C5C=CC(CC5)C4C3=O)o2)ccc1Cl (centres undefined) | inactive | –
COC(=O)c1ccc(COc2cccc3c2CCN(Cc2ccccc2)C3=O)o1 | inconclusive: 89.1 µM [inhibitor, single point] | –
Fc1cccc(Cl)c1CNc1n[nH]c(-c2ccco2)n1 | inactive | –
CCN(CC)C(=O)C1CCCN(Cc2ccccc2)C1 (centres undefined) | active: 25.1 µM | –
CCOC(=O)C(=O)/C(C#N)=C/Nc1ccc(Cl)cc1 | inconclusive: 39.8 µM [inhibitor, single point] | –
O=C(COc1ccc2ccccc2c1)NNC(=O)c1cnccn1 | active: 0.631 µM | –
CSc1ccc(/C=N/n2c(C3CCCCC3)n[nH]c2=S)cc1 | active: 11.2 µM | –
O=C(NC(=O)N1CCCC1)c1csnn1 | active: 56.2 µM | –
Nc1[nH]n2c(=O)cc(-c3ccccc3)nc2c1N=Nc1ccc(S(N)(=O)=O)cc1 | active: 35.5 µM | –
N#Cc1cc2ccccc2n2nnnc12 | active: 50.1 µM | –
COc1ccc(OC)c(CNc2ccc([N+](=O)[O-])cc2C)c1 | inconclusive: 20 µM [inhibitor, full curve, poor fit] | –
COc1ccc(NC(=O)CN2C(=O)S/C(=C/c3cccn3-c3ccc(C(=O)O)cc3)C2=O)cc1 | active: 22.4 µM | –
N#C/C(=C\c1ccc(O)c(O)c1)C(=O)c1ccc(O)c(O)c1 | active: 15.8 µM and active: 5.01 µM and active: 2.24 µM | –

Compound | Potency | activity, negative = inhibition
COc1ccc(NC(=O)Cc2csc(COc3cccc(C)c3)n2)cc1OC | inactive | –
Cc1c(-c2ccccc2)c(=O)oc2c(CN3CCN(C)CC3)c(O)ccc12 | inactive | –
O=C(/C=C/c1cccs1)N1CCN(c2ccc(F)cc2)CC1 | inactive | –
O=S(=O)(c1ccc(Br)cc1)c1nc(-c2ccco2)oc1NCCCn1ccnc1 | active: 44.7 µM | –
CC(=O)Nc1ccc(S(=O)(=O)N2CCSC2c2ccccc2Cl)cc1 (centres undefined) | inconclusive: 56.2 µM [inhibitor, partial curve, poor fit] | –
CC(=O)NC(=S)Nc1ccc(NC(=O)COc2ccc(Cl)cc2)cc1 | active: 5.62 µM | –
COc1ccc(N(C(=O)c2ccco2)S(=O)(=O)c2cc(Cl)c(Cl)cc2Cl)cc1 | inconclusive: 89.1 µM [inhibitor, single point] | –
COc1ccccc1C(=O)NC(CCSC)C(=O)NCC(c1cccs1)N(C)C (centres undefined) | inconclusive: 50.1 µM [inhibitor, partial curve, poor fit] | –
COc1ccc(CN2CCNC(=O)C2CC(=O)N(C)Cc2cc(C)no2)cc1OC (centres undefined) | inconclusive: 17.8 µM [inhibitor, full curve] | –
Cc1cc(OCn2ccc(C(=O)O)n2)ccc1Cl | – | inconclusive: -65.1% [inhibitor]
O=C(c1cc2ccccc2oc1=O)N(Cc1ccco1)C1CCS(=O)(=O)C1 (centres undefined) | inconclusive: 89.1 µM [inhibitor, single point] | –
CCOc1ccc(-n2c([S-])c(C(=O)Nc3ccc(S(=O)(=O)N4CCOCC4)cc3)[n+]3cc(C(N)=O)ccc23)cc1 | inconclusive: 89.1 µM [inhibitor, single point] | –
CCn1c(N)c(C(=O)NC2CCCCC2)sc1=S | inconclusive: 31.6 µM [inhibitor, single point] | –
CCOc1ccccc1N(CC(=O)N1CCCCCC1)S(C)(=O)=O | – | inactive: -1.68% [at 12.7 µM]
Cc1nc(N2CCN(Cc3ccccc3)CC2)nc2c1C(=O)CCC2 | – | inconclusive: -59.3% [inhibitor]
CN(C)c1ccc(S(=O)(=O)N2CCCCC2)cc1NC(=O)CN1C(=O)NC2(CCCC2)C1=O | active: 14.1 µM | –
Cc1ccccc1CN1CCN(C/C=C/c2ccccc2)CC1 | inconclusive: 89.1 µM [inhibitor, single point] | –
CCc1cc2c(cc3c(=O)n(CC(=O)N4CCCCC4)nc(CC)n32)s1 | inactive | –
CCOC(=O)C1CCCN(C(=O)c2cc(S(=O)(=O)N3CCCCC3)c[nH]2)C1 (centres undefined) | inactive | –
O=c1oc2c(CN3CCOCC3)c(O)ccc2c2c1CCC2 | inconclusive: 1 µM [inhibitor, full curve] | –
Cc1ccc(-c2nc(S(=O)(=O)c3ccc(Cl)cc3)c(N3CCCCC3)o2)cc1 | active: 2.82 µM | –
Cc1nn(C)c2ncc(C(=O)c3ccccc3O)cc12 | inconclusive: 79.4 µM [inhibitor, single point] | –
COc1ccc(CNC(=O)Cn2nnc(-c3ccccc3F)n2)cc1 | inconclusive: 1 µM [inhibitor, full curve] | –
